From the supplement of paper PMC10126150
Sequences with one replicate were seen in a single cluster, so their values are uncertain.

Test system: ATP
Assay: switch fluorescence ratio, 500 uM ATP over buffer (Cy3 cluster intensity, sum of 5 cycles each) (fold (ratio)); higher = stronger signal-on switching upon ATP binding; sequences stand for … in TCGTCGGCAGCGTCAGATGTGTATAAGAGACAGTTTTTTTTTTTTTTTTTTTTTTTTT…TC
Conditions: aptamer strand: ATP DNA aptamer (quencher-CACCTGGGGGAGTATTGCGGAGGAAGG + anchor), 100 nM annealed; ATP concentration: 500 uM; one replicate
Procedure, shortened: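 After annealing to 100 nM quencher-labelled ATP aptamer, Cy3-labelled switching-strand clusters on a modified Illumina MiSeq flow-cell were imaged in selection buffer. A second image followed after 15 min with 500 uM ATP at 22 °C, and five such buffer/ATP cycles were done, each separated by NaOH stripping and re-annealing. The fluorescence ratio, averaged per switch-domain sequence, is summed target-cycle over summed buffer-cycle Cy3 intensity per cluster, with clusters outside 100-1000 RFU excluded.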
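Note: ATP exposure 15 min at 22 °C before imaging.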

| Sequence | switch fluorescence ratio |
| --- | --- |
| CTCTATGGAT | 1.01 |
| CGTCACTCGC | 1.11 |
| ATCGGTCATT | 0.97 |
| CCTGTAGTTC | 1.08 |
| AGCTTTGAGG | 1.01 |
| AATGACAGC | 1.01 |
| GGGGTTATGC | 1.05 |
| GTCCTTACGA | 1.16 |
| CGTTTTCAAA | 0.989 |
| GACTCGGAGC | 1.01 |
| TGCACTTGGT | 1.02 |
| CGTGAGCATC | 1.45 |
| TCCACACGAT | 1.05 |
| TGCCTTGTCT | 1.04 |
| TTGGTATCG | 1.04 |
| CGCATCTGGT | 1.02 |
| CGGATATAAT | 0.948 |
| ACCCTAGGGA | 1.02 |
| TGCCTGTAGG | 0.98 |
| TGGTACTATT | 1.01 |
| CGATCTCATT | 1.02 |
| ACCACCCGAG | 1.17 |
| TGGGATATAA | 0.953 |

| Sequence | switch fluorescence ratio |
| --- | --- |
| AGTGGTTTCC | 0.961 |
| CAGGTTGAGT | 0.997 |
| ATTGGTGGAT | 1.03 |
| CTTGCGCCGC | 2.51 |
| CTCACTTTGG | 1 |
| CGAGTATGA | 1.02 |
| GGAACAAAGG | 0.99 |
| GAGCCTTGGT | 0.95 |
| TTTTTAGG | 1.03 |
| TGGGGGCAAC | 0.985 |
| TATTGGGAGT | 0.975 |
| ATTCTACGAC | 1.1 |
| TATATTTATA | 1.01 |
| ACTGCTCCCG | 1.05 |
| TTCTTTAGCC | 1.03 |
| CGCGGGTCGG | 0.984 |
| TTCACTTCG | 0.989 |
| CAAGTTGACG | 1.1 |
| GCCTTTCTCC | 3.65 |
| GTGGTTAACT | 1.05 |
| TTTTGAAGC | 1.02 |
| TATGGGTCGA | 0.97 |
| TAATTGGGAC | 1.01 |

| Sequence | switch fluorescence ratio |
| --- | --- |
| GTTGCGCATG | 1.03 |
| GGCGAAAAGT | 0.964 |
| TTAGTGCGGG | 0.971 |
| TTCAGTTATC | 0.926 |
| GACAGCGTCG | 1.01 |
| CTGTGCCTGG | 0.926 |
| GACAAACTGT | 1.12 |
| CTTTAGATGA | 1.06 |
| CATAGGGGGA | 1.08 |
| AGATTTATTC | 1.01 |
| GGGTTTTAAA | 1.02 |
| TTGGTCCGT | 0.967 |
| TACACCAGAA | 1.05 |
| GCGCACAAGA | 0.991 |
| CGGTAGGAGT | 1.02 |
| ATGCAGAAAG | 0.998 |
| TTCGCGTACA | 1 |
| CGGAGCCGGG | 0.959 |
| TTTCGAGGCG | 1.04 |
| CAACTGCATC | 1.88 |
| ACGCTGGGAT | 0.989 |
| GATTGGAGGT | 0.961 |
| CTTGATGCAC | 1.09 |

| Sequence | switch fluorescence ratio |
| --- | --- |
| GGGGACCGGA | 0.956 |
| GTTCTCAAGT | 0.972 |
| AGGATCACTC | 1 |
| TTTAAGCTCC | 1.01 |
| TTGGTCACGT | 1.03 |
| GTTACCGTGC | 1.04 |
| GTATTTATAG | 0.996 |
| TCACAGCGTC | 1.14 |
| GCGATGGAGC | 0.979 |
| TCTTGGTCCG | 0.965 |
| CTACACGGCA | 1.07 |
| TTCTAGGCCC | 0.973 |
| CGGCTCACTC | 1.13 |
| CCCAGAGATC | 1.09 |
| CCTCATTAAG | 2.7 |
| GAATAAAGCT | 1.12 |
| TGGAACCCTT | 0.999 |
| AATTAACCG | 1.03 |
| CATGGGTACC | 0.983 |
| TCTTTCAGTG | 1.03 |
| ACTAATTTTT | 1.05 |
| CCGTGAGATG | 1.02 |
| TAATCTAATT | 0.989 |

| Sequence | switch fluorescence ratio |
| --- | --- |
| GTCGTGTCCT | 1 |
| CACGCCAACT | 1.37 |
| AACCAAACAA | 1.04 |
| TAGTGCGTTT | 0.996 |
| TTTATACT | 1.07 |
| CGTGACGTG | 0.961 |
| TGAATGCAGA | 0.975 |
| CACAGCGGGG | 1.02 |
| TTCCAGGGAG | 1.07 |
| TATCGATTAA | 1.12 |
| CTAGTGCGTA | 1.01 |
| CGAGTTAATC | 1.05 |
| GTGTCAATGT | 1.01 |
| TCTCAAAGCG | 0.981 |
| TTCTTCTTG | 0.974 |
| TTGCAGGGTA | 0.998 |
| AATTCCAGT | 1.01 |
| GGCTTTTTCC | 1.15 |
| TCCCTTAGCA | 1.04 |
| GCGGGGGCCG | 0.959 |
| GAGTCTCTAT | 1 |
| GGATTCTATG | 0.975 |
| GTGCGCCGGC | 0.967 |

| Sequence | switch fluorescence ratio |
| --- | --- |
| TCGGGCCTCG | 1.02 |
| GGCTCTGGGT | 0.983 |
| GAAACCGCGT | 1.13 |
| ATGGCGTC | 0.984 |
| TGCCAAATGT | 0.977 |
| TATATTACTC | 1.05 |
| AGTTCCTCAG | 1.63 |
| CGCTTCCGGC | 1.03 |
| GGTACCGTTT | 1.01 |
| AATCACGCAG | 0.993 |
| CGTTGGTTGC | 1.05 |
| GCTGACAGGA | 1 |
| GCCCATACGA | 1.29 |
| AGGAGGTCGC | 0.988 |
| GAAGCGCATT | 1.11 |
| TTGCACTTAC | 1.85 |
| CGCGAGTTCG | 1.02 |
| AACTCGCTCC | 1.1 |
| GCGTGACCCT | 1.07 |
| GGGCACCGT | 1.02 |
| CACGTATGTG | 0.999 |
| TCACTCTGTG | 1.01 |
| TTATAAGTCG | 0.947 |

| Sequence | switch fluorescence ratio |
| --- | --- |
| AGTGAAGGGC | 0.979 |
| CTCCTGTAGT | 1.07 |
| ACTCAAGTT | 1.08 |
| CGGCGGCGGC | 0.995 |
| GATCATTACA | 0.984 |
| TTAGAAGACG | 1.03 |
| TCCCTACTCG | 1.13 |
| ATTTGCAAAA | 1.02 |
| TCGGCCTAGG | 0.997 |
| GCGTACCCCC | 2.04 |
| GCGGGCGGGT | 0.998 |
| ATGATGGCGC | 1.02 |
| GTTATTGGGC | 0.984 |
| GTTGAAGTCG | 1 |
| CGCTATCGAA | 1.02 |
| CGACCGGGAT | 2.04 |
| CCGCCGGCG | 1.02 |
| GATATACATT | 1.03 |
| CGGTTTATTA | 1 |
